# In publication PMC7968925:
# Amino acid sequences for entries named in this document (tags omitted).
# UniProt O54941: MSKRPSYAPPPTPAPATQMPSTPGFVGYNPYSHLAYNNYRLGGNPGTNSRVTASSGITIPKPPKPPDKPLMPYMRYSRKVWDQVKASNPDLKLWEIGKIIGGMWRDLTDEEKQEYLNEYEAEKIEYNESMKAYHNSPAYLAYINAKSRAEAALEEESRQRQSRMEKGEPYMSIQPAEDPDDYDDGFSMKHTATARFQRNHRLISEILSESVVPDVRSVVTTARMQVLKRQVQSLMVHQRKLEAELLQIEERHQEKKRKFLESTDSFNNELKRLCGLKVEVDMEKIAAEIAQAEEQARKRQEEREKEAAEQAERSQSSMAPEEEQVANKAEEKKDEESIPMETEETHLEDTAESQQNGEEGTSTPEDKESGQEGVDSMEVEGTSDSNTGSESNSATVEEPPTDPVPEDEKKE
# UniProt P15806: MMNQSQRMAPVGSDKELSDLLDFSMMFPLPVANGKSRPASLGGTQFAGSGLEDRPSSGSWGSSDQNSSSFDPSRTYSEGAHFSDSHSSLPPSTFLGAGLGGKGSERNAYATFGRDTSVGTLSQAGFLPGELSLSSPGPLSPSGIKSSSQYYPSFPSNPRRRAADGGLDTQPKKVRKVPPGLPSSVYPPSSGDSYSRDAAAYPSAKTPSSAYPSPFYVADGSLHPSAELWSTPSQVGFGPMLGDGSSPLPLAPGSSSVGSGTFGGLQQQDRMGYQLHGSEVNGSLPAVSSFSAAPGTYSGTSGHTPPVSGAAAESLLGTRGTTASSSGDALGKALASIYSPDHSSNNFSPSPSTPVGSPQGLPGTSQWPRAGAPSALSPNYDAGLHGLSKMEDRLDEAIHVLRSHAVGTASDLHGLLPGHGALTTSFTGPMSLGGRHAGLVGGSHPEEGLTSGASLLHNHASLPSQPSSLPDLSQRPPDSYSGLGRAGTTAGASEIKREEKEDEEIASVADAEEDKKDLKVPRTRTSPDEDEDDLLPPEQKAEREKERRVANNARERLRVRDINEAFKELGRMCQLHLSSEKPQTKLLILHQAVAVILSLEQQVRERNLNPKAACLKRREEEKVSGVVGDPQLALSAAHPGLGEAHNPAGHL
# UniProt Q06348: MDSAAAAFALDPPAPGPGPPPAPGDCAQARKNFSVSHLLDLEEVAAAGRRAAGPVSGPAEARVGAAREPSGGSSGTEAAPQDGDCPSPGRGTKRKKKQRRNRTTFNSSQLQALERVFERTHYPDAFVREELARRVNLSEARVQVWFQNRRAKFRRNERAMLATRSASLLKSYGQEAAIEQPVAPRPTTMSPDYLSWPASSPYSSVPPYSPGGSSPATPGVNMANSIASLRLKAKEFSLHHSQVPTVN
# UniProt P63013: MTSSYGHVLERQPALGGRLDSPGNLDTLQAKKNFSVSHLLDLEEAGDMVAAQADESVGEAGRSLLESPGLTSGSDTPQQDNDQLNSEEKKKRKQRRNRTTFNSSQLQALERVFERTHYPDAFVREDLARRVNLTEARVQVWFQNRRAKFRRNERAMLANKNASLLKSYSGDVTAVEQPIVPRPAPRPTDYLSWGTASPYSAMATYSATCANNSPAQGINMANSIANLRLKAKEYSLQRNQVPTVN
# UniProt Q09XV5: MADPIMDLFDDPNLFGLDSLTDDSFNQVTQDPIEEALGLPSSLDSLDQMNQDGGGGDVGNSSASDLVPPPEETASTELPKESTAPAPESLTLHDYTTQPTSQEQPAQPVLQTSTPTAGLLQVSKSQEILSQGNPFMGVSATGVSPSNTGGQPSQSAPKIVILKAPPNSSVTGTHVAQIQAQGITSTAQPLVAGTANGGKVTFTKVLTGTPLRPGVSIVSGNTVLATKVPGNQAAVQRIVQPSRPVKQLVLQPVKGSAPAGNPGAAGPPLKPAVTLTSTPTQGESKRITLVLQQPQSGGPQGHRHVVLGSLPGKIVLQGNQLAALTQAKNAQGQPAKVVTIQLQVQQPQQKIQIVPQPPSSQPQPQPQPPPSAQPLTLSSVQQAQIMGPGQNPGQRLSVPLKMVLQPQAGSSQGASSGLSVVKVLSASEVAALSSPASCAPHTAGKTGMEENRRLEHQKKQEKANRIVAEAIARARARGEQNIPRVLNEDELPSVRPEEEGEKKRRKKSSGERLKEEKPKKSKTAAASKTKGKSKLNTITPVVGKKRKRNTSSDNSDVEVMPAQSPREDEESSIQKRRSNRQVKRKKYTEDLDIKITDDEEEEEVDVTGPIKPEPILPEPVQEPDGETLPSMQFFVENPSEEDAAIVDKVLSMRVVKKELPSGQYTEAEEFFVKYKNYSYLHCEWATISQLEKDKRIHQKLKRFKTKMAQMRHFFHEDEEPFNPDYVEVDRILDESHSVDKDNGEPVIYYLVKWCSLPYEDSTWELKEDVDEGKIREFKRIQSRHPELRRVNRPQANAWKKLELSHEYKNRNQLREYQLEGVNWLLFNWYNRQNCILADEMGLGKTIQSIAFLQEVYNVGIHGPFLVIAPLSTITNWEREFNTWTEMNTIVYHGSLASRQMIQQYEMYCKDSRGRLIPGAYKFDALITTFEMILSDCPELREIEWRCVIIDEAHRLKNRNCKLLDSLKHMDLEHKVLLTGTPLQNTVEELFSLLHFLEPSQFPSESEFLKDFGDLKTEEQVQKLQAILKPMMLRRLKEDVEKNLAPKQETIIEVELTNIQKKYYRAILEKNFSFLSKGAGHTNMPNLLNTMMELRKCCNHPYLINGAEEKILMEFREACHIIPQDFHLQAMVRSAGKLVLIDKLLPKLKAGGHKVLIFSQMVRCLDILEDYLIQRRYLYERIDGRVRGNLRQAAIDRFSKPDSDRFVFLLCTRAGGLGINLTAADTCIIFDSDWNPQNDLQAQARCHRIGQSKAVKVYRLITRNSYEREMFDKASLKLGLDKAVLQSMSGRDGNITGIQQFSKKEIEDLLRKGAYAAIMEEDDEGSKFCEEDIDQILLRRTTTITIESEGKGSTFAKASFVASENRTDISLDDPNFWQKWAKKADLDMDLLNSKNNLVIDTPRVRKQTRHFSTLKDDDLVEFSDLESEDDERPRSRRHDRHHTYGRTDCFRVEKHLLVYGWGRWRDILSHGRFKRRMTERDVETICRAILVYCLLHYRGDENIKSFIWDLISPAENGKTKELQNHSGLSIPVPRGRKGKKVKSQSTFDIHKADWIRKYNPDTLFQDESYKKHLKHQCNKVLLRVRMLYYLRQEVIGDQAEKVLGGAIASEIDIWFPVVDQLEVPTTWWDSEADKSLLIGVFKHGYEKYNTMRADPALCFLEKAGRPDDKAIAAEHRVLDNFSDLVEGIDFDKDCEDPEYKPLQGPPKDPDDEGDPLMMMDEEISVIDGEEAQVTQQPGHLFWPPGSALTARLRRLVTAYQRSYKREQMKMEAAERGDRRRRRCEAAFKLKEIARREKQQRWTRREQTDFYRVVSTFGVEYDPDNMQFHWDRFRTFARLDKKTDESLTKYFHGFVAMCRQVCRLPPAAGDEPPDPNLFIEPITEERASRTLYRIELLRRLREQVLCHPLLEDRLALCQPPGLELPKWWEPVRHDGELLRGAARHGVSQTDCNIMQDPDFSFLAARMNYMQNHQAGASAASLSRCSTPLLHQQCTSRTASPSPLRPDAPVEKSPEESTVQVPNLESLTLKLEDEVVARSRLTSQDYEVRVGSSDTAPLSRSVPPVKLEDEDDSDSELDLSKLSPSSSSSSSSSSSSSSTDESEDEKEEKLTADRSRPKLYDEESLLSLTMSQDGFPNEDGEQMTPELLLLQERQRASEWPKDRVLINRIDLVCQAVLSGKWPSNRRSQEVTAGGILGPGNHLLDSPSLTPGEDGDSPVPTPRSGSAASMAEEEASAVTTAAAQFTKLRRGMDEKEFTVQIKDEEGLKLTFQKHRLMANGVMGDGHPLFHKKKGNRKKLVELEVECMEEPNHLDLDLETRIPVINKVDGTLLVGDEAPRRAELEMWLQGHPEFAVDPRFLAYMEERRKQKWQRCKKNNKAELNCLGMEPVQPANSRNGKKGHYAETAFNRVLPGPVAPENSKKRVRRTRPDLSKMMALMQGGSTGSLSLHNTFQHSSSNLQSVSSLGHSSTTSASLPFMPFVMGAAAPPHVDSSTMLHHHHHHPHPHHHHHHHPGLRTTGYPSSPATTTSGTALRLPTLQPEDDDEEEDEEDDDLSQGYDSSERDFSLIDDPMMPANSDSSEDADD
# Results are given in words; binding and its absence hold for the method and conditions named. In cells and extracts the contact can be indirect. Some results given as binding are weak or reduced against the parent protein; the word gives no strength. Sequences can lack the tags named with a protein.
# T1: TWIST1 (pCMV-Twist1-FLAG) (mouse) (UniProt P26687)
# T1 sequence: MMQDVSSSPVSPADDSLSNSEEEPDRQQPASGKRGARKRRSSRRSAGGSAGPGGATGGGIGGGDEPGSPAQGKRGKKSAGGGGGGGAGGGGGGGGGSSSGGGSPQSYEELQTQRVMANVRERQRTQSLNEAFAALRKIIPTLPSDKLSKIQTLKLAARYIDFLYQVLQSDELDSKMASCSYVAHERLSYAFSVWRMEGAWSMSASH
# T2: GST-Twist1 (full-length TWIST1) (mouse) (UniProt P26687)
# T2 sequence: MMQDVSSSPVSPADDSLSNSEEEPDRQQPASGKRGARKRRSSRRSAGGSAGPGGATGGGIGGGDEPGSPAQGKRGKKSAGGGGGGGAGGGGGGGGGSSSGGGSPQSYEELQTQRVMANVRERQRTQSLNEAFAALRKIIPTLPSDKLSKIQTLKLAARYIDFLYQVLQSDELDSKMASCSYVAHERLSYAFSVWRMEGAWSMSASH
# Target: T1, TWIST1 (pCMV-Twist1-FLAG) (mouse)
# Test: co-IP; O9-1 cells transfected with TWIST1 (pCMV-Twist1-FLAG) and one HA-tagged partner; cleared lysate with α-TWIST1/α-FLAG antibody (1 μg/mL) 4°C 2 hr, Protein-G agarose; blot α-HA
row,Molecule,binding
1,HA-tagged SMARCE1 (pCMV-Smarce1-HA) (from UniProt O54941 1-411),no binding
2,HA-tagged TCF3 (pCMV-Tcf3-HA) (from UniProt P15806 1-651),binds
3,HA-tagged PRRX2 (pCMV-Prrx2-HA) (from UniProt Q06348 1-247),binds
4,HA-tagged PRRX1 (pCMV-Prrx1-HA) (from UniProt P63013 1-245),binds
5,HA-tagged CHD8 (pCMV-Chd8-HA) (from UniProt Q09XV5 1-2582),binds
6,"HA-tagged DVL1 (pCMV-Dvl1-HA) (protein, UniProt P51141 1-695) MAETKIIYHMDEEETPYLVKLPVAPERVTLADFKNVLSNRPVHAYKFFFKSMDQDFGVVKEEIFDDNAKLPCFNGRVVSWLVLAEGAHSDAGSQGTDSHTDLPPPLERTGGIGDSRPPSFHPNVASSRDGMDNETGTESMVSHRRERARRRNRDEAARTNGHPRGDRRRDLGLPPDSASTVLSSELESSSFIDSDEEDNTSRLSSSTEQSTSSRLVRKHKCRRRKQRLRQTDRASSFSSITDSTMSLNIITVTLNMERHHFLGISIVGQSNDRGDGGIYIGSIMKGGAVAADGRIEPGDMLLQVNDVNFENMSNDDAVRVLREIVSQTGPISLTVAKCWDPTPRSYFTIPRADPVRPIDPAAWLSHTAALTGALPRYGTSPCSSAITRTSSSSLTSSVPGAPQLEEAPLTVKSDMSAIVRVMQLPDSGLEIRDRMWLKITIANAVIGADVVDWLYTHVEGFKERREARKYASSMLKHGFLRHTVNKITFSEQCYYVFGDLCSNLASLNLNSGSSGASDQDTLAPLPHPSVPWPLGQGYPYQYPGPPPCFPPAYQDPGFSCGSGSAGSQQSEGSKSSGSTRSSHRTPGREERRATGAGGSGSESDHTVPSGSGSTGWWERPVSQLSRGSSPRSQASAVAPGLPPLHPLTKAYAVVGGPPGGPPVRELAAVPPELTGSRQSFQKAMGNPCEFFVDIM",binds

# Target: T2, GST-Twist1 (full-length TWIST1) (mouse)
# Test: pull-down; GST-TWIST1 constructs on Glutathione Sepharose beads incubated with lysate of cells expressing HA-tagged proteins (benzonase treated), 4°C 4 hr; blot α-HA; only the target purified
row,Molecule,binding
1,HA-tagged SMARCE1 (pCMV-Smarce1-HA) (from UniProt O54941 1-411),no binding
